According to PubChem BioAssay AID360 (National Center for Advancing Translational Sciences (NCATS), 2006):
Screen size: about 48,000 compounds; about 550 (1.1%) were called active. About 4% were inconclusive and are not listed. Cut-off read from the data, not from the text of the source: active = potency below about 15 µM; inconclusive = mostly about 16 µM to 33 µM; inactive = weaker than that. The list shows a part of the results.

These compounds were tested against Lysosomal acid glucosylceramidase (Homo sapiens) (UniProt P04062) (assay: Glucocerebrosidase). Details: purified enzyme, resorufin glucoside fluorescence (screen aimed at inhibitors), 20 min.
Outline: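 Normal human glucocerebrosidase (0.2 nM final) was assayed with resorufin β-D-glucopyranoside (30 uM final) in 50mM citric acid/KH2PO4, 10mM sodium taurocholate, 0.01% tween-20, pH 5.9. Compounds were titrated; fluorescence (Ex 548, Em 600) read after 20 min at RT.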
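Note: the screen sought inhibitors.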
Potency is the fitted concentration of half-maximal effect.

Sequence of UniProt P04062 (P04062 whole entry, looked up): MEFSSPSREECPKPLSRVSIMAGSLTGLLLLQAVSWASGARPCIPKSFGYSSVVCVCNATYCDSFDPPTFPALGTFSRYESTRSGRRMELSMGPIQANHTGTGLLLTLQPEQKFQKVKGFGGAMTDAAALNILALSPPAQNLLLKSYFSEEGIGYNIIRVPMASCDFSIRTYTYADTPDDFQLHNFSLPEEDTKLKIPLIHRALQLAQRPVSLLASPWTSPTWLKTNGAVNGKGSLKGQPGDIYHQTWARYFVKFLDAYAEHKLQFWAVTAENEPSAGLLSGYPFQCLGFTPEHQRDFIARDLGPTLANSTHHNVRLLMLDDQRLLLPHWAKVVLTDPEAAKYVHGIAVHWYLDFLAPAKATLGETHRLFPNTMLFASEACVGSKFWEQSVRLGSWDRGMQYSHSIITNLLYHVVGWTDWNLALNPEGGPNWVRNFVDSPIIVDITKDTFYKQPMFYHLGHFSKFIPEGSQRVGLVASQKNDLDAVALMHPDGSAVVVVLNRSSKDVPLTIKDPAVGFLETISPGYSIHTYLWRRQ

Potency, inactive:
CCCn1c(SCC(=O)NCCc2ccccc2)nnc1-c1cccnc1 > 76.9 µM, O=C(NCCC1=CCCCC1)c1ccc(Cl)c(S(=O)(=O)N2CCOCC2)c1 > 76.9 µM, CC(C)OC(=O)C1C2C=CC3(CN(CC4CCCO4)C(=O)C13)O2 (stereo not drawn) > 76.9 µM, COc1ccc(-c2nc(CN3CCC(C(=O)NC4CCCc5ccccc54)CC3)c(C)o2)cc1OC (stereo not drawn) > 76.9 µM, Cc1c(OCc2nn[nH]n2)ccc2c(-c3ccccc3)cc(=O)oc12 > 76.9 µM, CCOC(=O)N1CCN(C(=O)CCN2C(=O)COc3ccc(C)cc32)CC1 > 76.9 µM, CSc1ccc(Cl)c(C(=O)OCC(=O)N2CCOCC2)c1 > 76.9 µM, CC1(C)Cc2c(sc3c2c2ncnn2c2nnc(SCC(=O)NCc4ccco4)n32)CO1 > 76.9 µM, COc1cccc(NS(=O)(=O)c2ccc3[nH]cc(C(=O)NCCN4CCOCC4)c(=O)c3c2)c1 > 76.9 µM, O=C(NCc1ccccc1)C1CCN(C(=O)NCc2ccccc2)CC1 > 76.9 µM, O=C(CCN1C(=O)C2CC=C(Cl)CC2C1=O)NCc1ccco1 (stereo not drawn) > 76.9 µM, NC(=O)c1cn(-c2ccccc2)nc1-c1cccnc1 > 76.9 µM, Cc1c(C(=O)N2CCOCC2)sc2nc(-c3ccccc3)cn12 > 76.9 µM, COC(=O)c1ccc(N2CCN(C)CC2)c(NC(=O)COc2ccc(OC)cc2)c1 > 76.9 µM, Cc1cc(C(=O)N(C)CC(=O)Nc2ccccc2C(F)(F)F)c(C)o1 > 76.9 µM, CCOC(=O)N1CCN(CC(=O)c2c(C)[nH]c3ccccc23)CC1 > 76.9 µM, CCCCNC(=O)CCn1c(=O)c2ccccc2n(CC(=O)Nc2ccccc2OCC)c1=O, O=C(N1CCOCC1)N1CCN(S(=O)(=O)N2CCCCC2)CC1 > 76.9 µM, O=C(COc1ccc(-n2cnnn2)cc1)NC1CCCCC1 > 76.9 µM, CCOC(=O)c1c(C)[nH]c(C(=O)CSc2nnc(CC(C)c3ccccc3)o2)c1C (stereo not drawn) > 76.9 µM, Cc1noc(C)c1CN1C(=O)NC2(CCCCCCC2)C1=O > 76.9 µM, CCCn1c(C)cc(C(=O)COc2ncnc3sccc23)c1C > 76.9 µM, CCc1nn2c(=O)cc(N3CCN(c4cc(C)nc5ccccc45)CC3)nc2s1 > 76.9 µM, N#Cc1cnc(SCC(=O)Nc2ccccc2C(F)(F)F)nc1N > 76.9 µM, Cc1cc(C)n(-c2nc3c(c(=O)[nH]c(=O)n3C)n2Cc2cccc(Br)c2)n1 > 76.9 µM, CCn1nc(NC(=O)c2ccncc2)c2cc3ccc(C)cc3nc21 > 76.9 µM, Cc1c(C(=O)NCc2cccs2)oc2ccccc12 > 76.9 µM, CC(=O)NCCOc1nc(N(C)C)nc(N2CCOCC2)n1 > 76.9 µM, CC(=O)Nc1ccc2nc(SCC(=O)O)sc2c1 > 76.9 µM, CCN(CC)CCNc1ccnc2cc(Cl)ccc12 > 76.9 µM, COc1ccc(OC)c(-c2nnc(-c3ccc(C)o3)o2)c1 > 76.9 µM, COC(=O)CSc1nnc(Cc2cc(=O)[nH]c(=O)[nH]2)n1-c1cccc(OC)c1 > 76.9 µM, Cn1c(-c2ccc3c(c2)OCO3)cnc1NCc1ccccc1 > 76.9 µM, Cc1ccc(NC(=O)c2oc3ccc(S(=O)(=O)N4CCOCC4)cc3c2C)cc1C > 76.9 µM, Cc1csc(SCCn2c(N3CCCC3)nc3c2c(=O)[nH]c(=O)n3C)n1 > 76.9 µM, CCC(=O)N1CCc2cc(S(=O)(=O)NCCC(=O)Nc3cc(C)cc(C)c3)ccc21 > 76.9 µM, Cc1cc(=O)[nH]c2ccccc12 > 76.9 µM, O=C(C1CCN(c2nnc(N3CCCC3=O)s2)CC1)N1CCN(Cc2ccc3c(c2)OCO3)CC1 > 76.9 µM, CCOC(=O)C1CCN(C(=O)Cn2cc(C(=O)c3ccco3)c3ccccc32)CC1 > 76.9 µM, CC(=O)Nc1sc2c(c1C(c1cccs1)N1CCOCC1)CCCC2 (stereo not drawn), Cc1[nH]c(C)c(C(=O)O)c1CNC1CCCCC1C (stereo not drawn) > 76.9 µM, CCCc1ccc(OCCNC(=O)CC)cc1 > 76.9 µM, CCOC(=O)C1CCN(Cc2ccc(O)c3ncccc23)CC1 > 76.9 µM, CN(CCNC(=O)C1(O)c2ccccc2NC(=O)N1c1ccccc1)Cc1ccccc1 (stereo not drawn) > 76.9 µM, COC(=O)c1ccc(C(=O)OC)c(NC(=O)COc2ccccc2OC)c1 > 76.9 µM, COc1ccc(S(=O)(=O)N(C)CC(=O)Nc2ccccc2SC)cc1Cl > 76.9 µM, CC(=O)C1=C(O)C(=O)N(Cc2ccco2)C1c1ccccc1 (stereo not drawn) > 76.9 µM, Clc1cccc(Cl)c1Cn1cnc2c(N3CCCCCC3)ncnc21 > 76.9 µM, Cn1c(=O)c2nc(-c3ccccc3)oc2c2ccccc21 > 76.9 µM, Nc1nc(SCC(=O)Nc2ccc(Br)cc2F)n[nH]1 > 76.9 µM, COc1ccc(C(OC(=O)c2ccco2)C(=O)NCC2CCCO2)cc1 (stereo not drawn) > 76.9 µM, c1cnn(-c2cc(N3CCOCC3)ncn2)c1 > 76.9 µM, C/C(Cl)=C/CN1C(=O)C2C3C=CC(C3)C2C1=O (stereo not drawn) > 76.9 µM, COc1cc(OC)c(C2C3=C(CCCC3=O)Nc3nc4ccccc4n32)cc1OC (stereo not drawn) > 76.9 µM, COc1ccc(C(=O)COC(=O)CCCn2c(=O)oc3ccccc32)cc1 > 76.9 µM, Cc1nc2sc3c(c2c(=O)o1)CCC3 > 76.9 µM, Cc1cc(C)nc(N(C#N)Cc2ccccc2)n1 > 76.9 µM, COc1ccccc1-c1nnc(NC(=O)C(C)C)s1 > 76.9 µM
